One assay deals with HSkMC. The assay is described as follows: cytotoxicity call (relative viability < 0.9). The note with it: 10 µM.
For another assay, the system named is HepG2. The assay is described as follows: cytotoxicity call (relative viability < 0.9). The note with it: 10 µM.
Another assay has as its system S. aureus RN4220. The experiment in a line: growth inhibition call (relative growth <= 0.2). The note with it: 50 µM.

The other results are listed elsewhere or left out.

On to `COc1ccc(NC(=O)N(C)C[C@H]2Oc3ccc(NC(=O)C4CC4)cc3C(=O)N([C@H](C)CO)C[C@H]2C)cc1`, for which the cytotoxicity call in the assay on HSkMC and with HepG2 was “inactive” throughout. Further, the growth inhibition call in the assay on S. aureus RN4220 is “inactive”.
As to `NCCCCCC(O)(P(=O)(O)O)P(=O)(O)O`, the cytotoxicity call in the assay on HSkMC (human skeletal muscle cells) and in the assay on HepG2 was “inactive” throughout. The growth inhibition call in the assay on S. aureus RN4220 is “inactive”.
For the compound `COc1ccc(CN(C)C[C@H]2OCCCC[C@@H](C)Oc3ccc(NC(=O)Cc4ccccc4)cc3C(=O)N([C@@H](C)CO)C[C@@H]2C)cc1`, the cytotoxicity call in the assay with HSkMC and with HepG2 was “inactive” throughout. The growth inhibition call with S. aureus RN4220 is “inactive”.
With `CO[C@H]1CN(C)C(=O)c2cc(NS(C)(=O)=O)ccc2OC[C@@H](C)N(C(=O)c2ccc3c(c2)OCO3)C[C@@H]1C`, the cytotoxicity call with HSkMC and with HepG2 was “inactive” each time. In addition, the growth inhibition call with S. aureus RN4220 was “inactive”.
With `COc1ccc(S(=O)(=O)N(C)C[C@@H]2Oc3ccc(NC(=O)Nc4cccc5ccccc45)cc3C(=O)N([C@H](C)CO)C[C@H]2C)cc1`, the cytotoxicity call in the assay with HSkMC and in the assay on HepG2 was “inactive” in each case. Besides, the growth inhibition call with S. aureus RN4220 is “inactive”.
For the compound `O=C(C[C@@H]1CC[C@H]2[C@@H](COC[C@@H](O)CN2S(=O)(=O)c2cccc(Cl)c2)O1)NCc1ccncn1`, the cytotoxicity call in the assay with HSkMC and with HepG2 was “inactive” throughout. Moreover, the growth inhibition call in the assay with S. aureus RN4220 was “inactive”.
Consider `C[C@H]1CN([C@@H](C)CO)S(=O)(=O)c2ccc(C#CCN(C)C)cc2O[C@H]1CN(C)C`, for which the cytotoxicity call in the assay with HSkMC and with HepG2 was “inactive” throughout. Further, in the assay with S. aureus RN4220, the growth inhibition call was “inactive”.
On to `C[C@@H]1CCCCO[C@H](CN(C)CC2CC2)[C@H](C)CN([C@H](C)CO)C(=O)c2cc(NC(=O)Nc3ccc(C(F)(F)F)cc3)ccc2O1`, for which the cytotoxicity call with HSkMC and with HepG2 was “active” in each case. Further, the growth inhibition call in the assay on S. aureus RN4220 was “active”.
As for `CC1CCC(NC(=O)N(CCCl)[NH2+][O-])CC1` (stereo unspecified), the cytotoxicity call with HSkMC and in the assay with HepG2 was “inactive” each time. For the same compound, in the assay with S. aureus RN4220, the growth inhibition call is “inactive”.
With `Cc1cccc(N2C[C@@H](CN)OC2=O)c1`, the cytotoxicity call in the assay with HSkMC and in the assay on HepG2 was “inactive” in each case. In addition, the growth inhibition call in the assay on S. aureus RN4220 was “inactive”.
For the compound `COc1ccc(NC(=O)N(C)C[C@H]2Oc3ccc(NC(=O)Nc4ccc(C(F)(F)F)cc4)cc3C(=O)N([C@@H](C)CO)C[C@H]2C)cc1`, the cytotoxicity call with HSkMC and with HepG2 was “inactive” in each case. Moreover, in the assay with S. aureus RN4220, the growth inhibition call is “inactive”.
`COc1ccc(S(=O)(=O)N2c3ccc(Cl)cc3[C@](O)(c3ccccc3Cl)[C@@H]2C(=O)N2CCC[C@H]2C(N)=O)cc1OC`: the cytotoxicity call in the assay with HSkMC and with HepG2 was “inactive” in each case. In the assay with S. aureus RN4220, the growth inhibition call is “inactive”.

(Values after the antibiotic and cytotoxicity screens of Wong et al. (2023).)
